Reference: article PMC3902928, “Nuclear ubiquitination by FBXL5 modulates Snail1 DNA binding and stability” (Nucleic Acids Research, 2013)
Results are given in words; binding and its absence hold for the method and conditions named. For some of these results: In cells and extracts the contact can be indirect. Some results given as binding are weak or reduced against the parent protein; the word gives no strength. For some of these results: Tags and fused reporters may be left off the sequences shown.

Amino acid sequences for entries named in this document (tags omitted).
UniProt P63208: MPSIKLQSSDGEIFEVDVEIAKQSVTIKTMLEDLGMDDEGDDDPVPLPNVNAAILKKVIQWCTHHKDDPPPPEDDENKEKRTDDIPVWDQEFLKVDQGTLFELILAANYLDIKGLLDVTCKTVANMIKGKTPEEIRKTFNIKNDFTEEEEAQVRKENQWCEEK
UniProt Q15672: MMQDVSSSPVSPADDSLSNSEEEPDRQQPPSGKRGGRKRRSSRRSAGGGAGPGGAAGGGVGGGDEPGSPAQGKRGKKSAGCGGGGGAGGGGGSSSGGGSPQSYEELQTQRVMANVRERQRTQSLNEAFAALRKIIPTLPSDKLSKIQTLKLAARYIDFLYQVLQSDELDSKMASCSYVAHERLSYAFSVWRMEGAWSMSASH
UniProt O95863: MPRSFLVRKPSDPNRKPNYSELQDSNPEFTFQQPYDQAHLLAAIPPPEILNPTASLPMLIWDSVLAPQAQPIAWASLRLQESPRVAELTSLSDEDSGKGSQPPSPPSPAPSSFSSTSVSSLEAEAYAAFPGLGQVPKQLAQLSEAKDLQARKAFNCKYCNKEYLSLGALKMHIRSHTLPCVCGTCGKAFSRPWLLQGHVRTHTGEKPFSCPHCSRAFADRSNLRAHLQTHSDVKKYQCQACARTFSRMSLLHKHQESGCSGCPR

T1: 3xFlag-FBXL5 (baculovirus) (UniProt Q9UKA1)
T1 sequence: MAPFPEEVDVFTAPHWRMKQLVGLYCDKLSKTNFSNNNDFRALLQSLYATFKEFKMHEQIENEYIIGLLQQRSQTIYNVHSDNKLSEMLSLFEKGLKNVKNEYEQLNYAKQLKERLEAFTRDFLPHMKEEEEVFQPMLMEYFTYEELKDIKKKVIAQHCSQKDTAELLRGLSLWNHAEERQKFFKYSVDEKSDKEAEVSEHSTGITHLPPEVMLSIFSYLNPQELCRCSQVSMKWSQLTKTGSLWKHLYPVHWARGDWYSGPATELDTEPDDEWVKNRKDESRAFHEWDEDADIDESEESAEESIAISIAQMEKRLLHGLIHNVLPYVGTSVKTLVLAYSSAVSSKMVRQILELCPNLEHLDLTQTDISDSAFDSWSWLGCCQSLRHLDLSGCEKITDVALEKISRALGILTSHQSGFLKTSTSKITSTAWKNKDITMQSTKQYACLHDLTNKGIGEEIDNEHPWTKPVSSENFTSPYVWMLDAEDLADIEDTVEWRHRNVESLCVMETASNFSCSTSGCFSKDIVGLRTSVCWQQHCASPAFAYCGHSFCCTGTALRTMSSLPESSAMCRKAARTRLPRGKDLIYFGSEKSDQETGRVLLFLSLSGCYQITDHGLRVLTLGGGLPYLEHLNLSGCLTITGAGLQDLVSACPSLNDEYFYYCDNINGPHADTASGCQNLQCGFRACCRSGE

T2: GST-FBXL5 (pGEX-6P-1) (UniProt Q9UKA1)
T2 sequence: T1 sequence

T3: endogenous FBXL5 (RWP-1 cells) (human (endogenous in RWP-1)) (UniProt Q9UKA1)
T3 sequence: T1 sequence

B1: 6xMyc-FBXL5 (pcDNA3-6xMyc-FBXL5) (protein, UniProt Q9UKA1 1-691)
chain: T1 sequence
B2: Zeb1 (protein, UniProt P37275 1-1124)
chain: MADGPRCKRRKQANPRRNNVTNYNTVVETNSDSDDEDKLHIVEEESVTDAADCEGVPEDDLPTDQTVLPGRSSEREGNAKNCWEDDRKEGQEILGPEAQADEAGCTVKDDECESDAENEQNHDPNVEEFLQQQDTAVIFPEAPEEDQRQGTPEASGHDENGTPDAFSQLLTCPYCDRGYKRFTSLKEHIKYRHEKNEDNFSCSLCSYTFAYRTQLERHMTSHKSGRDQRHVTQSGCNRKFKCTECGKAFKYKHHLKEHLRIHSGEKPYECPNCKKRFSHSGSYSSHISSKKCISLIPVNGRPRTGLKTSQCSSPSLSASPGSPTRPQIRQKIENKPLQEQLSVNQIKTEPVDYEFKPIVVASGINCSTPLQNGVFTGGGPLQATSSPQGMVQAVVLPTVGLVSPISINLSDIQNVLKVAVDGNVIRQVLENNQANLASKEQETINASPIQQGGHSVISAISLPLVDQDGTTKIIINYSLEQPSQLQVVPQNLKKENPVATNSCKSEKLPEDLTVKSEKDKSFEGGVNDSTCLLCDDCPGDINALPELKHYDLKQPTQPPPLPAAEAEKPESSVSSATGDGNLSPSQPPLKNLLSLLKAYYALNAQPSAEELSKIADSVNLPLDVVKKWFEKMQAGQISVQSSEPSSPEPGKVNIPAKNNDQPQSANANEPQDSTVNLQSPLKMTNSPVLPVGSTTNGSRSSTPSPSPLNLSSSRNTQGYLYTAEGAQEEPQVEPLDLSLPKQQGELLERSTITSVYQNSVYSVQEEPLNLSCAKKEPQKDSCVTDSEPVVNVIPPSANPINIAIPTVTAQLPTIVAIADQNSVPCLRALAANKQTILIPQVAYTYSTTVSPAVQEPPLKVIQPNGNQDERQDTSSEGVSNVEDQNDSDSTPPKKKMRKTENGMYACDLCDKIFQKSSSLLRHKYEHTGKRPHECGICKKAFKHKHHLIEHMRLHSGEKPYQCDKCGKRFSHSGSYSQHMNHRYSYCKREAEERDSTEQEEAGPEILSNEHVGARASPSQGDSDERESLTREEDEDSEKEEEEEDKEMEELQEEKECEKPQGDEEEEEEEEEVEEEEVEEAENEGEEAKTEGLMKDDRAESQASSLGQKVGESSEQVSEEKTNEA
B3: GFP-Snail1NT (domain or fragment, UniProt Q02085 1-151)
chain: MPRSFLVRKPSDPRRKPNYSELQDACVEFTFQQPYDQAHLLAAIPPPEVLNPAASLPTLIWDSLLVPQVRPVAWATLPLRESPKAVELTSLSDEDSGKSSQPPSPPSPAPSSFSSTSASSLEAEAFIAFPGLGQLPKQLARLSVAKDPQSR

What was measured:
[1] = molecular target: T1, 3xFlag-FBXL5 (baculovirus); test: co-purification of co-expressed proteins; Sf9 cells infected with 6xHis-Skp1, HA-Cullin1, Rbx1 and 3xFlag-FBXL5 baculovirus at ratio 1:2:1:1; purified as in ref. 21; which member was the bait is not told
GST-FBXL5 (pGEX-6P-1) [2] = molecular target: T2, GST-FBXL5 (pGEX-6P-1); test: pull-down; GST or GST-FBXL5 protein on glutathione-sepharose with extracts from transfected HEK293T cells; western blot; only the target purified
GST-FBXL5 (pGEX-6P-1) [3] = molecular target: T2, GST-FBXL5 (pGEX-6P-1); test: pull-down; in vitro pull-down with GST-FBXL5, Snail1 T203E against wt (Supplementary Figure S5B); source of the Snail1 proteins not told
[4] = molecular target: T3, endogenous FBXL5 (RWP-1 cells) (human (endogenous in RWP-1)); test: co-IP; endogenous proteins in RWP-1 cells treated with MG132 and FAC; IP with rabbit anti-FBXL5 pAb, irrelevant antibody or no antibody as controls; western blot
[5] = molecular target: Snail1-HA (pcDNA3-Snail1-HA) (UniProt Q02085); test: co-IP; HEK293T transfected with Snail1-HA and Myc-FBXL5, 100 µM FAC and 10 µM MG132; cytoplasmic fraction washed off, nuclear extracts immunoprecipitated with rabbit anti-HA pAb
[6] = molecular target: Snail1-HA (pcDNA3-Snail1-HA) (UniProt Q02085); test: co-IP; HEK293T transfected with Snail1-HA and Myc-FBXL5; 100 µM FAC (6 h) and 10 µM MG132 (4 h); cell extracts immunoprecipitated with rabbit anti-HA pAb, western blot; also with or without co-transfected Flag-Lats2 (Figure 7C)

| Molecule | binding (GST-FBXL5 (pGEX-6P-1) [2]) | other results |
| --- | --- | --- |
| 6xHis-T7-Skp1 (baculovirus) (from UniProt P63208 1-163) | – | binding [1]: binds |
| GFP-Snail1 (full-length) (from UniProt Q02085 1-264) | binds | – |
| GFP-Snail1CT (from UniProt Q02085 152-264) (domain or fragment) | binds | – |
| Snail1 T203E (from UniProt Q02085 1-264) | – | binding (GST-FBXL5 (pGEX-6P-1) [3]): binds |
| Snail1-HA (pcDNA3-Snail1-HA) (from UniProt Q02085 1-264) | binds | binding (GST-FBXL5 (pGEX-6P-1) [3]): binds |
| Twist1-V5 (from UniProt Q15672 1-202) | no binding | – |
| endogenous Skp1 (HEK293T cells) (from UniProt P63208 1-163) | binds | – |
| endogenous Snail1 (RWP-1 cells) (from UniProt O95863 1-264) | – | binding [4]: binds |
| B1 | – | binding [5]: binds; binding [6]: binds |
| B2 | no binding | – |
| B3 | no binding | – |
